Assay results published in publication PMC9911399, “Two distinct binding modes provide the RNA-binding protein RbFox with extraordinary sequence specificity”.
Substitutions are numbered along the chain they refer to; changes in the protein carry UniProt numbers. This is one part of the list.

T1: RBFOX1 RRM RbFoxmut (Fox-RRM*) (Homo sapiens, UniProt Q9NWB1 109-208, R118D;E147R;N151S;E152T)
T1 sequence: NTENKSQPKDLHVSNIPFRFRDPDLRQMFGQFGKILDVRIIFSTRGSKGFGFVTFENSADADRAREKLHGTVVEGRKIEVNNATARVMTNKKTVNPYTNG

B1: GAGAUAA (DNA:RNA)
RNA: GGGAGACCGGAAUUCAGAUUGUCCGAGAUAAUUAAAUCCCGUCGUAGCCACCA
DNA 1: CAATCTGAATTCCGGTCTCCC
DNA 2: TGGTGGCTACGACGGGATT
B2: GGUUUUC (DNA:RNA)
RNA: B1 RNA with A26G, G27U, A28U, A30U, A31C
DNA 1: CAATCTGAATTCCGGTCTCCC
DNA 2: TGGTGGCTACGACGGGATT
B3: CCGACUU (DNA:RNA)
RNA: B1 RNA with G25C, A26C, U29C, A30U, A31U
DNA 1: CAATCTGAATTCCGGTCTCCC
DNA 2: TGGTGGCTACGACGGGATT
B4: UCUGAAG (DNA:RNA)
RNA: B1 RNA with G25U, A26C, G27U, A28G, U29A, A31G
DNA 1: CAATCTGAATTCCGGTCTCCC
DNA 2: TGGTGGCTACGACGGGATT
B5: CAAAUGG (DNA:RNA)
RNA: B1 RNA with G25C, G27A, A30G, A31G
DNA 1: CAATCTGAATTCCGGTCTCCC
DNA 2: TGGTGGCTACGACGGGATT
B6: GACCACC (DNA:RNA)
RNA: B1 RNA with G27C, A28C, U29A, A30C, A31C
DNA 1: CAATCTGAATTCCGGTCTCCC
DNA 2: TGGTGGCTACGACGGGATT
B7: CCAGGGA (DNA:RNA)
RNA: B1 RNA with G25C, A26C, G27A, A28G, U29G, A30G
DNA 1: CAATCTGAATTCCGGTCTCCC
DNA 2: TGGTGGCTACGACGGGATT
B8: UCUGUUG (DNA:RNA)
RNA: B1 RNA with G25U, A26C, G27U, A28G, A30U, A31G
DNA 1: CAATCTGAATTCCGGTCTCCC
DNA 2: TGGTGGCTACGACGGGATT
B9: UCGCAAA (DNA:RNA)
RNA: B1 RNA with G25U, A26C, A28C, U29A
DNA 1: CAATCTGAATTCCGGTCTCCC
DNA 2: TGGTGGCTACGACGGGATT
B10: CCGAUUC (DNA:RNA)
RNA: B1 RNA with G25C, A26C, A30U, A31C
DNA 1: CAATCTGAATTCCGGTCTCCC
DNA 2: TGGTGGCTACGACGGGATT
B11: GGCUUCC (DNA:RNA)
RNA: B1 RNA with A26G, G27C, A28U, A30C, A31C
DNA 1: CAATCTGAATTCCGGTCTCCC
DNA 2: TGGTGGCTACGACGGGATT
B12: AGGUCUG (DNA:RNA)
RNA: B1 RNA with G25A, A26G, A28U, U29C, A30U, A31G
DNA 1: CAATCTGAATTCCGGTCTCCC
DNA 2: TGGTGGCTACGACGGGATT
B13: UCCGUAA (DNA:RNA)
RNA: B1 RNA with G25U, A26C, G27C, A28G
DNA 1: CAATCTGAATTCCGGTCTCCC
DNA 2: TGGTGGCTACGACGGGATT
B14: UGGACCG (DNA:RNA)
RNA: B1 RNA with G25U, A26G, U29C, A30C, A31G
DNA 1: CAATCTGAATTCCGGTCTCCC
DNA 2: TGGTGGCTACGACGGGATT
B15: CUUUAGA (DNA:RNA)
RNA: B1 RNA with G25C, A26U, G27U, A28U, U29A, A30G
DNA 1: CAATCTGAATTCCGGTCTCCC
DNA 2: TGGTGGCTACGACGGGATT
B16: CGACCAA (DNA:RNA)
RNA: B1 RNA with G25C, A26G, G27A, A28C, U29C
DNA 1: CAATCTGAATTCCGGTCTCCC
DNA 2: TGGTGGCTACGACGGGATT
B17: CUAACUG (DNA:RNA)
RNA: B1 RNA with G25C, A26U, G27A, U29C, A30U, A31G
DNA 1: CAATCTGAATTCCGGTCTCCC
DNA 2: TGGTGGCTACGACGGGATT
B18: GGGAAUA (DNA:RNA)
RNA: B1 RNA with A26G, U29A, A30U
DNA 1: CAATCTGAATTCCGGTCTCCC
DNA 2: TGGTGGCTACGACGGGATT
B19: CUUUAUC (DNA:RNA)
RNA: GGGAGACCGGAAUUCAGAUUGUCCCUUUAUCUUAAAUCCCGUCGUAGCCACCA
DNA 1: CAATCTGAATTCCGGTCTCCC
DNA 2: TGGTGGCTACGACGGGATT
B20: CUGACGC (DNA:RNA)
RNA: B19 RNA with U27G, U28A, A29C, U30G
DNA 1: CAATCTGAATTCCGGTCTCCC
DNA 2: TGGTGGCTACGACGGGATT

What follows are binders tested against T1, RBFOX1 RRM RbFoxmut (Fox-RRM*) (assay: EMSA; HiTS-Eq, 1 nM pool, 10 min; buffer printed only for the single-RNA assays: 10 mM Tris pH 7.5, 150 mM NaCl, 3.4 mM EDTA, 0.001% NP-40, 30 C). Conditions: tags: His6 N-terminal (pET28a); label: 5' 32P.
Summary of the method: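 Relative association constants, normalised to the cognate motif, were derived by comparing read counts of each RNA species with those of the control reaction. The RNA sequenced was the free fraction, separated by 8% native PAGE after a 10 min equilibration in 50 µL of 1 nM 5′-radiolabelled RNA (7 randomized nucleotides) with increasing concentrations of purified wild-type or mutant RbFox RRM.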

Binder	binding signal
B1	0.0764 KA relative to UGCAUGU
B2	0.0911 KA relative to UGCAUGU
B3	0.0477 KA relative to UGCAUGU
B4	0.0776 KA relative to UGCAUGU
B5	0.07 KA relative to UGCAUGU
B6	0.0529 KA relative to UGCAUGU
B7	0.0632 KA relative to UGCAUGU
B8	0.115 KA relative to UGCAUGU
B9	0.0916 KA relative to UGCAUGU
B10	0.0456 KA relative to UGCAUGU
B11	0.142 KA relative to UGCAUGU
B12	0.187 KA relative to UGCAUGU
B13	0.0724 KA relative to UGCAUGU
B14	0.238 KA relative to UGCAUGU
B15	0.133 KA relative to UGCAUGU
B16	0.0878 KA relative to UGCAUGU
B17	0.0781 KA relative to UGCAUGU
B18	0.157 KA relative to UGCAUGU
B19	0.0598 KA relative to UGCAUGU
B20	0.071 KA relative to UGCAUGU
